# Counter-ions that a name gives are not always drawn. ± gives the standard error. Hit rate of the full screen: of about 1,300 compounds, about 130 (10%) showed an effect of 50% or more. The list shows a part of the results, in another mix than the full data.
# Test system: Trichoderma virens ATCC 9645
# Assay: growth yield (OD600) with compound + IPBC relative to untreated control; higher = less growth inhibition
# Settings: compound concentration: 100 uM, IPBC concentration: 200 ng/ml
# How it was run: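 Trichoderma virens ATCC 9645 spores from 7-day potato dextrose agar plates were suspended in potato dextrose broth at 15,000 spores ml^−1. Aliquots of 100 μl with library compounds at 100 μM final, with or without a co-applied biocide at 200 ng ml^−1, were grown in 96-well plates at 30 °C. OD600 was read at 40 h and 72 h on a BioTek EL800. Growth is expressed relative to the control without either agent, as means of duplicate screens.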
SMILES,growth yield (40 h) [%],growth yield (72 h) [%]
COc1cc(C(=O)NS(=O)(=O)c2ccccc2C)ccc1Cc1cn(C)c2ccc(NC(=O)OC3CCCC3)cc12 [Zafirlukast] + CCCCNC(=O)OCC#CI [3-iodo-2-propynyl butylcarbamate (IPBC)],115.3 ± 0.32,108 ± 2
NS(=O)(=O)c1cc(C(=O)O)c(NCc2ccco2)cc1Cl [Furosemide] + CCCCNC(=O)OCC#CI [3-iodo-2-propynyl butylcarbamate (IPBC)],95 ± 7,102 ± 3.8
NC(=O)c1ncn([C@@H]2O[C@H](CO)[C@@H](O)[C@H]2O)n1 [Ribavirin] + CCCCNC(=O)OCC#CI [3-iodo-2-propynyl butylcarbamate (IPBC)],89.9 ± 6.3,92.7 ± 2.9
CC(C)COCC(CN(Cc1ccccc1)c1ccccc1)N1CCCC1 (configuration not stated) [Bepridil hydrochloride] + CCCCNC(=O)OCC#CI [3-iodo-2-propynyl butylcarbamate (IPBC)],56.5 ± 1.6,94.39 ± 0.63
NS(=O)(=O)c1cc2c(cc1Cl)N=CNS2(=O)=O [Chlorothiazide] + CCCCNC(=O)OCC#CI [3-iodo-2-propynyl butylcarbamate (IPBC)],102.6 ± 0.32,106 ± 2.8
Cn1c(=O)c2[nH]cnc2n(C)c1=O [Aminophylline] + CCCCNC(=O)OCC#CI [3-iodo-2-propynyl butylcarbamate (IPBC)],93.7 ± 11,93.2 ± 7
CS(=O)(=O)c1ccc(C2=C(c3ccccc3)C(=O)OC2)cc1 [Rofecoxib] + CCCCNC(=O)OCC#CI [3-iodo-2-propynyl butylcarbamate (IPBC)],91.7 ± 11,96.4 ± 6.6
CN(C)CCC=C1c2ccccc2CCc2ccccc21 [Amitryptiline hydrochloride] + CCCCNC(=O)OCC#CI [3-iodo-2-propynyl butylcarbamate (IPBC)],80.7 ± 2.2,95.1 ± 2
Cc1ccnc2c1NC(=O)c1cccnc1N2C1CC1 [Nevirapine] + CCCCNC(=O)OCC#CI [3-iodo-2-propynyl butylcarbamate (IPBC)],89.7 ± 4.6,91.3 ± 2.8
NC(=O)OCCCc1ccccc1 [Phenprobamate] + CCCCNC(=O)OCC#CI [3-iodo-2-propynyl butylcarbamate (IPBC)],106 ± 5.6,104.5 ± 0.42
CN1C(C(=O)Nc2ccccn2)=C(O)c2sccc2S1(=O)=O [Tenoxicam] + CCCCNC(=O)OCC#CI [3-iodo-2-propynyl butylcarbamate (IPBC)],83.1 ± 2.1,94.08 ± 0.1
Cc1ncc([N+](=O)[O-])n1CC(O)CCl (configuration not stated) [Ornidazole] + CCCCNC(=O)OCC#CI [3-iodo-2-propynyl butylcarbamate (IPBC)],98.16 ± 0.32,105 ± 1.7
COc1cc2c(cc1OC)C(=O)C(CC1CCN(Cc3ccccc3)CC1)C2 (configuration not stated) [Donepezil hydrochloride] + CCCCNC(=O)OCC#CI [3-iodo-2-propynyl butylcarbamate (IPBC)],85.9 ± 2.1,87.3 ± 2.3
CCCCC(CC)CN1CN(CC(CC)CCCC)CC(C)(N)C1 (configuration not stated) [Hexetidine] + CCCCNC(=O)OCC#CI [3-iodo-2-propynyl butylcarbamate (IPBC)],28.6 ± 8.6,–
O=C(CCCN1CCC(O)(c2ccc(Br)cc2)CC1)c1ccc(F)cc1 [Bromperidol] + CCCCNC(=O)OCC#CI [3-iodo-2-propynyl butylcarbamate (IPBC)],64.3 ± 2.1,87.3 ± 1.5
CO[C@@]1(NC(=O)Cc2cccs2)C(=O)N2C(C(=O)O)=C(COC(N)=O)CS[C@@H]21 [Cefoxitin sodium salt] + CCCCNC(=O)OCC#CI [3-iodo-2-propynyl butylcarbamate (IPBC)],100 ± 15,98.3 ± 7.2
CC(=O)c1ccc2c(c1)N(CCCN1CCC(CCO)CC1)c1ccccc1S2 [Piperacetazine] + CCCCNC(=O)OCC#CI [3-iodo-2-propynyl butylcarbamate (IPBC)],55,94.8
COc1cc(Cc2cnc(N)nc2N)cc(OC)c1OC [Trimethoprim] + CCCCNC(=O)OCC#CI [3-iodo-2-propynyl butylcarbamate (IPBC)],83.1 ± 2.7,91 ± 1.7
COCC1=C(C(=O)OC(C)OC(=O)OC(C)C)N2C(=O)[C@@H](NC(=O)/C(=N\OC)c3csc(N)n3)[C@H]2SC1 (some centres not stated) [Cefpodoxime proxetil] + CCCCNC(=O)OCC#CI [3-iodo-2-propynyl butylcarbamate (IPBC)],121 ± 3.5,113.6 ± 0.94
CCN(CC)CCOC(=O)C(c1ccccc1)C1CCCCC1 (configuration not stated) [Drofenine hydrochloride] + CCCCNC(=O)OCC#CI [3-iodo-2-propynyl butylcarbamate (IPBC)],81.96 ± 0.64,93.13 ± 0.63
Cn1ccnc1S [Methimazole] + CCCCNC(=O)OCC#CI [3-iodo-2-propynyl butylcarbamate (IPBC)],120 ± 16,111 ± 12
CC(C)(Sc1cc(C(C)(C)C)c(O)c(C(C)(C)C)c1)Sc1cc(C(C)(C)C)c(O)c(C(C)(C)C)c1 [Probucol] + CCCCNC(=O)OCC#CI [3-iodo-2-propynyl butylcarbamate (IPBC)],86.6 ± 5.9,94.7 ± 4.1
CCN1C(=O)NC(c2ccccc2)C1=O (configuration not stated) [Ethotoin] + CCCCNC(=O)OCC#CI [3-iodo-2-propynyl butylcarbamate (IPBC)],85 ± 3,87 ± 2.1
CN1CCC(=C2c3ccccc3CC(=O)c3sccc32)CC1 [Ketotifen fumarate] + CCCCNC(=O)OCC#CI [3-iodo-2-propynyl butylcarbamate (IPBC)],87.5 ± 11,95.2 ± 2.5
CN1CCCC(CC2c3ccccc3Sc3ccccc32)C1 (configuration not stated) [Metixene hydrochloride] + CCCCNC(=O)OCC#CI [3-iodo-2-propynyl butylcarbamate (IPBC)],48.9 ± 2.2,–
COc1ccccc1N1CCN(CC(O)COc2cccc3ccccc23)CC1 (configuration not stated) [Naftopidil dihydrochloride] + CCCCNC(=O)OCC#CI [3-iodo-2-propynyl butylcarbamate (IPBC)],64.81 ± 0.32,97.5 ± 2.7
C[C@@H]1CN([C@H]2CC[C@](C#N)(c3ccc(F)cc3)CC2)CC[C@]1(C(=O)O)c1ccccc1 [Levocabastine hydrochloride] + CCCCNC(=O)OCC#CI [3-iodo-2-propynyl butylcarbamate (IPBC)],118 ± 11,111 ± 7.3
